B1: LINE1-mini (parent)
chain: GGCAGAGCUCAACACAGCGUGGCAAAGUGGCUGUGGCUAGACUGCC

The source gives no read counts; variants with many changes may rest on few reads.

The variants in this data set derive from B1. The data set can be described thus: self-cleavage, relative activity (ratio to wild type); higher = more cleavage; in vitro, sequencing; the parent is a self-cleaving ribozyme.
Take C10G U20C A25G: the self-cleavage stood at 0.02.
For C10G G19A G22C U43A the value was 0.
For C10U A12U A14U, the self-cleavage is 0.14.
To C10G G27U U28C G40A U43G belongs 0.
To C10G G21U G22U A25C G29A C42G belongs 0.01; to C10U A41U C46A, 0.05; to C10G C23A G27U, 0.02.
For C10G G21A C37G the value was 0.01.
As to C10G G27U C37G, the self-cleavage was determined as 0.02.
To C10G G17C C18U C37U U43C belongs 0.
Turning to C10U C15U C18A, the self-cleavage turned out to be 0.07.
Turning to C10U A24C A25U G27U C37A, the self-cleavage was 0.02.
C10G C18U G21A C45A: the self-cleavage worked out at 0.02.
As for C10G G19U C31A C46A, the self-cleavage amounted to 0.03.
To C10U A16C U20C belongs 0.08.
For the variant C10U A11C G29A, the self-cleavage turned out to be 0.02.
For C10G G17A G21U C42A the value was 0.01; for C10U C13U G21C, 0.02; for C10U A11U C13U G17U G19A G33U, 0.02.
For C10U A14C G19C C31U the value was 0.01; for C10U C15G C18A G33U C46G, 0.04; for C10U A26C C45G, 0.11.
In the case of C10U C15A A26G, the self-cleavage came out at 0.06.
Turning to C10U C23U G35A, the self-cleavage was determined as 0.06.
Turning to C10G C18G G21U A26C U43A C45G, the self-cleavage came out at 0.01.
Consider C10U A14U G19U U34G, for which the self-cleavage was 0.21.
For C10U A11U U32C the value was 0.04.
To C10G C23U G40A C45U C46G belongs 0.02; to C10U G17A U20G G36C, 0.02.
Take C10G G17U G19A A24U U34C: the self-cleavage is 0.02.
For C10G G22U C42U the value was 0.12.
For C10G G22A U43C, the self-cleavage was determined as 0.02.
To C10G C15U G27A C31A C37U belongs 0.01; to C10G G21U G40U C42A C46G, 0.01.
For C10U A12U U28C G33U the value was 0.03.
To C10U A11U C15U U20C G29U G33U belongs 0.03; to C10G C37U U43G C46G, 0.
For the variant C10U G19A G27A G33C C42U, the self-cleavage worked out at 0.02.
To C10G G27U U28A A39G belongs 0.05; to C10U A14C C18A G40C, 0.01; to C10G U20G A39C C42G, 0.
For C10U C13G C15A A24C the value was 0.06.
Consider C10G U34A A41C, for which the self-cleavage is 0.01.
To C10U A39C U43A belongs 0.05; to C10G U32A A39G A41U, 0.02.
To C10G C23U C31G belongs 0.1; to C10U C13U C15G G17U U28A U32A, 0.04; to C10U A11C G44U, 0.01.
With C10G G21U U32G G44U C46A, the self-cleavage was found to be 0.01.
For C10G G21A G22C U32C U34C, the self-cleavage came to 0.01.
To C10U C15A C31A G33C belongs 0.02; to C10U A12C A41U, 0.01.
Take C10U A11U A12U C18A A26U C46A: the self-cleavage is 0.02.
Consider C10U A26U A41G, for which the self-cleavage amounted to 0.02.
For C10G C23A A25U, the self-cleavage was 0.16.
C10U A26C G27U C42U: the self-cleavage stood at 0.11.
For C10G C15U C31A G36C the value was 0.02; for C10U A14C C15G, 0.02.
For the variant C10U C15G G29A U32G G36A A41G, the self-cleavage worked out at 0.07.
For C10U A41G C42A the value was 0.03; for C10G C18G G33A C45A, 0.02; for C10U C13A C37G C42U, 0.05.
To C10U C15G U20C U38A belongs 0.05; to C10G G22U A39U, 0.15.
To C10U C23U G40C C46A belongs 0; to C10G G44U C46G, 0.04; to C10U G17C G21A, 0.81.
For C10G G27C C42A, the self-cleavage stood at 0.
For C10U A12G C13U G35U the value was 0.03.
For C10U A11G G22A G30A G35U the value was 0.01; for C10G G27C U28C, 0.1.
For C10U A26C G30A the value was 0.7; for C10U A14G U32C C42A G44A, 0.02; for C10U A24G A39C A41C C42U, 0.01.
As for C10G U32G G40A A41G G44C, the self-cleavage is 0.02.
For the variant C10U A12U U20G C37G, the self-cleavage turned out to be 0.
To C10U C13A A14U C31A belongs 0.21; to C10U A11G C18G U34A, 0.01.
Turning to C10U C15A G29C G40U, the self-cleavage was found to be 0.01.
To C10U C15A G19A G30A U32C G36U belongs 0.06; to C10G G17C A39G, 0.02; to C10G G30A G36U, 0.02.
To C10U A14C G21A belongs 0.04; to C10G U38C U43C, 0.
Take C10G G22C G30A: the self-cleavage worked out at 0.07.
As to C10G G29C C46A, the self-cleavage was found to be 0.03.
For C10U A16G A26C U38C U43A the value was 0.01; for C10G C15U U28G G40U, 0.04; for C10U A12C A14C C15U, 0.04.
Turning to C10G G36C U38A, the self-cleavage was found to be 0.02.
In the case of C10U C18A G19U, the self-cleavage was 0.42.
To C10U A11U C31U U32A C46U belongs 0.02; to C10G G17A G29C, 0.08; to C10U A11C G27A G30C, 0.06.
As for C10U C18A A41C, the self-cleavage turned out to be 0.02.
For C10G G17A A25C C31A C37G the value was 0.01.
Consider C10U C15U C31U C42U, for which the self-cleavage stood at 0.11.
On to C10U A12U C18A G35C G36C, for which the self-cleavage amounted to 0.01.
For C10U A14U C23G U32G C46U the value was 0.04.
To C10U A26G G29U belongs 0.28; to C10G U34A C45U C46U, 0; to C10U A14C C15U A24C G27U, 0.1.
With C10U G17A G22C, the self-cleavage came to 0.02.
For C10U C15U C37A the value was 0.05.
To C10U C31G A39U A41C C42A belongs 0.03.
To C10U C18U U32A G40C C42A belongs 0.1.
For the variant C10G C23U U28C G44U, the self-cleavage worked out at 0.01.
For C10U A14U A26G U28A A41U, the self-cleavage was 0.05.
To C10G G40U C45G belongs 0.01; to C10U G17A G19A A24C G30A C31U A41U, 0.06.
To C10U A26C G35A belongs 0.08; to C10U C18U C31A, 0.1; to C10G U32C G40U, 0.01.
C10U A11G G21U G22U: the self-cleavage was determined as 0.05.
For C10U C23G G27A U28A A41C, the self-cleavage amounted to 0.02.
To C10U A16G G19C C23G belongs 0.67; to C10G G21U G30C G35U, 0.01.
Regarding C10G G17C G21U C46A, the self-cleavage turned out to be 0.33.
For C10G C18A U43C the value was 0.01; for C10U C23A A24C G30C, 1.01.
As to C10G G29C G35U C37A U38C U43C, the self-cleavage was 0.
Take C10G C23U G30U: the self-cleavage is 0.14.
Consider C10U C31G G36C, for which the self-cleavage came to 0.03.
To C10G G19U A24G belongs 0.04.
Take C10G U34A G44U: the self-cleavage is 0.02.
To C10U C15U G35U belongs 0.03; to C10G G17C U34G G40A, 0.01.
For C10U A16U U38A A41U, the self-cleavage came to 0.
Take C10U C15A G30C: the self-cleavage came out at 0.03.
Consider C10G G19A G35A G44C, for which the self-cleavage turned out to be 0.01.
For C10U A12U C42U the value was 0.09; for C10G C18G A25G, 0.04; for C10U A14C U20G, 0.03.
For C10G G21U U34A G44U the value was 0.01.
For C10U A11G A14U C18A C31A the value was 0.02; for C10U A14C A26C G30C, 0.03.
Turning to C10G U34G A39U G40A, the self-cleavage turned out to be 0.02.
For C10G G27C G40U the value was 0.02.
For C10U C18G G19U G21U C23A the value was 0.34.
To C10U A16C C23G G36A belongs 0.
Consider C10U A16U C23A A24U A25U C37U, for which the self-cleavage was 0.03.
Consider C10U C13A G19C, for which the self-cleavage came to 0.03.
For C10G C15U U32C the value was 0.06; for C10G C15U U32A, 0.01.
To C10G U32A A41G belongs 0.
For the variant C10U A14U G29A U32C, the self-cleavage was 0.07.
To C10G G29A U38A C42A C46U belongs 0.01; to C10G U20A G40C, 0.
In the case of C10G G19A G22A, the self-cleavage worked out at 0.1.
For C10G G40A G44U the value was 0.03; for C10U A11G A12U U34A, 0; for C10U A16C U43G, 0.
For C10U A24G G30U G33U, the self-cleavage is 0.02.
For C10G G29A C31A C37U U38A the value was 0.01; for C10U C15U G19U A25C, 0.43; for C10U A11U C18U A26G G35U, 0.03.
For C10U A12G G22C the value was 0.01; for C10G G17U G29C C37U, 0.01.
Consider C10G G22A G33A U34G U38A, for which the self-cleavage was 0.01.
To C10U A26G G35C G40U belongs 0.01; to C10G G21U G27A G36C C42A, 0.01; to C10G G27A C31U, 0.04.
For C10G G36A G44A the value was 0.03; for C10U G17A C23U G33U, 0.02.
As for C10G C18U G22A C46U, the self-cleavage stood at 0.11.
As for C10G G33U G40U A41U, the self-cleavage is 0.01.
In the case of C10G C31G G40U, the self-cleavage turned out to be 0.01.
